Results on 172 sequences are retold here after PMC6212790.

The list shows a part of the results. At the low end of the ranking the order means little.

The target of this assay is T1, GST-Rok (full length) (UniProt O34857).
T1 sequence: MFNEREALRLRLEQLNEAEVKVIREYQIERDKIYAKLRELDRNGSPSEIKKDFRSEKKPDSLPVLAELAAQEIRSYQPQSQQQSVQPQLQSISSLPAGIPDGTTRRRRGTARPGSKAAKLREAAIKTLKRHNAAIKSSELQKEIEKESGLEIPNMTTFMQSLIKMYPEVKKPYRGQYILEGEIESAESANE
Nature of the assay: protein binding microarray.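 Further: rank score from −0.5 (least bound) to 0.5 (best bound).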 As to conditions: Rok is a gene silencer of Bacillus subtilis; high values mean tight binding; most listed sequences are background and not binding sites; double strand, one strand shown.
The sequence CAAGCTGG showed a binding signal of -0.295 E-score.

Consider CGTCCCAC, for which the binding signal was -0.0484 E-score.

For CCAACTAA, the binding signal was 0.178 E-score.

Sequence CACGTGCG showed a binding signal of -0.102 E-score.

As to AATCATCA, the binding signal came out at 0.11 E-score.

CTCCCGCA: the binding signal was -0.274 E-score.

In turn, GTATTTCA had a binding signal of 0.187 E-score.

CCTTGGTA returned a binding signal of -0.186 E-score.

Sequence TGGCCGAA registered a binding signal of -0.123 E-score.

On to CAACACGA, for which the binding signal is -0.164 E-score.

AGTTCGGC showed a binding signal of 0.0497 E-score.

Consider CCCATCTC, for which the binding signal is -0.264 E-score.

In turn, CAATGTCG displayed a binding signal of -0.0271 E-score.

In the case of CCTCGTAG, the binding signal was -0.0355 E-score.

Take ACTTGAGC: the binding signal is 0.0826 E-score.

As to CCTTCGCC, the binding signal is -0.245 E-score.

In turn, CACGGTTC came in with a binding signal of -0.189 E-score.

Sequence GCCCGTTA displayed a binding signal of -0.231 E-score.

In turn, CAATAGTC registered a binding signal of 0.101 E-score.

In turn, ATGGTGGA came in with a binding signal of -0.0265 E-score.

As to CTCCGCGC, the binding signal was -0.218 E-score.

On to AGAGGCCC, for which the binding signal is -0.331 E-score.

Consider GGTCGAAC, for which the binding signal was -0.135 E-score.

CGGTGAGC yielded a binding signal of -0.281 E-score.

Consider ACCGTGAG, for which the binding signal is -0.0381 E-score.

CACCTCAC: the binding signal is -0.0372 E-score.

The sequence CCAAGGCG had a binding signal of -0.401 E-score.

With CCGGCGGA, the binding signal is -0.365 E-score.

Consider TCAACAAA, for which the binding signal worked out at 0.00449 E-score.

AAGTGTAT came in with a binding signal of 0.255 E-score.

Sequence CTAGCGAG displayed a binding signal of -0.000369 E-score.

CCTTTAGA: the binding signal is -0.161 E-score.

For the sequence GACTCGCC, the binding signal is -0.337 E-score.

The sequence GGAGTACC registered a binding signal of -0.17 E-score.

In turn, ACGTATTC returned a binding signal of 0.104 E-score.

The sequence ACCGCTCT came in with a binding signal of -0.204 E-score.

As to CGATTCAA, the binding signal turned out to be 0.0363 E-score.

In the case of ACTCCAGG, the binding signal is -0.338 E-score.

TAGGGACA registered a binding signal of -0.214 E-score.

GCTTCCAA returned a binding signal of -0.0659 E-score.

The sequence ATGAGCAC gave a binding signal of 0.0381 E-score.

Sequence AGTTTCTG displayed a binding signal of 0.134 E-score.

Turning to CATATATG, the binding signal came out at 0.343 E-score.

As to ATCTCCCA, the binding signal was -0.0952 E-score.

Take CGGTTGCA: the binding signal is -0.077 E-score.

Sequence GTAGATGA came in with a binding signal of 0.255 E-score.

As to ATGTACTG, the binding signal worked out at 0.196 E-score.

As to TGCGGAAA, the binding signal is 0.21 E-score.

Take AAATACGC: the binding signal is 0.0877 E-score.

Consider CATACATG, for which the binding signal is 0.143 E-score.

As for GTAGGAAC, the binding signal came out at 0.0415 E-score.

For GTTCAGTA, the binding signal stood at 0.245 E-score.

In turn, GCTACTCC gave a binding signal of -0.125 E-score.

Consider AGAACTAA, for which the binding signal was determined as 0.254 E-score.

CTCGTCTA gave a binding signal of -0.0969 E-score.

In turn, AAGATCGT came in with a binding signal of 0.0466 E-score.

In the case of ACCCCTTC, the binding signal is -0.369 E-score.

As for CAGAACTA, the binding signal turned out to be 0.301 E-score.

With GGTCCCAC, the binding signal is -0.289 E-score.

CTGCCCTA registered a binding signal of -0.179 E-score.

Regarding CCCCAAGC, the binding signal is -0.236 E-score.

As for AAGGGCGA, the binding signal is -0.167 E-score.

With CAATCTCA, the binding signal came out at 0.0216 E-score.

Turning to CATGGATA, the binding signal turned out to be 0.0452 E-score.

In turn, GGTCCAAC had a binding signal of -0.199 E-score.

On to AGGACACC, for which the binding signal was -0.188 E-score.

In the case of TCCAACGA, the binding signal was -0.106 E-score.

The sequence TGGGTCAA yielded a binding signal of 0.0132 E-score.

AAAAGACA: the binding signal worked out at 0.114 E-score.

GACGACTA returned a binding signal of 0.172 E-score.

In turn, GTGAGAAA displayed a binding signal of 0.118 E-score.

Consider AACAAGAA, for which the binding signal stood at 0.0112 E-score.

As to ACATAGAC, the binding signal turned out to be 0.0568 E-score.

For the sequence CTCGGCAC, the binding signal was -0.15 E-score.

Turning to GCGTCCCA, the binding signal is -0.293 E-score.

For CCTCTCAA, the binding signal is -0.193 E-score.

In turn, AACTACAA yielded a binding signal of 0.34 E-score.

As for CCCCTACA, the binding signal was -0.143 E-score.

Sequence GGATAAAA returned a binding signal of 0.144 E-score.

CGATCCGA gave a binding signal of -0.0947 E-score.

GTCGAGGA: the binding signal was -0.127 E-score.

The sequence GAACATCA displayed a binding signal of 0.0639 E-score.

The sequence CACTTCAC displayed a binding signal of -0.0206 E-score.

As for CATGGCTA, the binding signal is -0.0494 E-score.

The sequence AGTTAGAG registered a binding signal of 0.182 E-score.

As to AAGCCCGC, the binding signal was -0.256 E-score.

The sequence GGGTCCAC registered a binding signal of -0.266 E-score.

Consider CCATCCGA, for which the binding signal is -0.117 E-score.

ACCGACAC: the binding signal is 0.0508 E-score.

The sequence ATGAGGTC gave a binding signal of -0.181 E-score.

In turn, CATCCCAC registered a binding signal of -0.223 E-score.

The sequence CGGGGATA displayed a binding signal of -0.022 E-score.

For the sequence GGCCCAAA, the binding signal was -0.215 E-score.

As for CCTCACTC, the binding signal was -0.184 E-score.

For the sequence CACAGTAC, the binding signal is -0.0633 E-score.

As for CGTCGCAC, the binding signal was -0.16 E-score.

The sequence AATGTACA displayed a binding signal of 0.347 E-score.

In turn, ATACGCAA showed a binding signal of 0.272 E-score.

Sequence CCTGTCCC came in with a binding signal of -0.133 E-score.

As to AAGCGAAG, the binding signal worked out at 0.00699 E-score.

For the sequence GCGTGACA, the binding signal is -0.265 E-score.

In turn, CTAGAGAA returned a binding signal of 0.193 E-score.

TGCTGCCA registered a binding signal of -0.196 E-score.

Consider GGGATCTA, for which the binding signal is 0.262 E-score.

CATCTGGC: the binding signal was -0.164 E-score.

With ACACTCAG, the binding signal was found to be 0.0129 E-score.

Turning to AATGAGTG, the binding signal was determined as 0.0141 E-score.

Regarding AAAATGAT, the binding signal was determined as 0.171 E-score.

Take GACACCAA: the binding signal was -0.0592 E-score.

The sequence ATCATGAG returned a binding signal of -0.129 E-score.

In turn, GGCTCGAA came in with a binding signal of -0.106 E-score.

CTTCGACC: the binding signal was -0.228 E-score.

For the sequence CATGGGGG, the binding signal is -0.307 E-score.

Turning to GGCCTAAC, the binding signal was -0.306 E-score.

AAGGCTCA: the binding signal was -0.344 E-score.

In the case of CACCAGAG, the binding signal was -0.0905 E-score.

Regarding CTATCACC, the binding signal was 0.184 E-score.

GAAGAAGC: the binding signal is -0.267 E-score.

ACTGTCGA came in with a binding signal of 0.0777 E-score.

Take CCTATACC: the binding signal is 0.171 E-score.

The sequence CCTCCTAC returned a binding signal of -0.245 E-score.

CACCGAAC displayed a binding signal of -0.239 E-score.

On to AGGGTATC, for which the binding signal is -0.186 E-score.

With CGTGACGC, the binding signal is -0.15 E-score.

ATGAGCGG gave a binding signal of -0.167 E-score.

Regarding CGAAATGA, the binding signal was -0.0356 E-score.

As to CCTTAATC, the binding signal is -0.174 E-score.

Consider ACAATGCT, for which the binding signal was -0.0851 E-score.

As to ATTTAGGC, the binding signal was -0.0308 E-score.

With GCACTCGC, the binding signal is -0.41 E-score.

On to AGTTGAAC, for which the binding signal amounted to 0.0051 E-score.

In turn, ACGGGTCT came in with a binding signal of -0.138 E-score.

In turn, AACCTAGA returned a binding signal of 0.0843 E-score.

GACGGCGC yielded a binding signal of -0.366 E-score.

As for AATTTCCC, the binding signal was -0.000701 E-score.

In turn, CATGAAAG came in with a binding signal of -0.0701 E-score.

Consider ATTCGGCG, for which the binding signal was -0.154 E-score.

Consider ACGCAGGA, for which the binding signal was -0.179 E-score.

For the sequence CCTGACAC, the binding signal is -0.294 E-score.

Consider CGAAGAGC, for which the binding signal was -0.117 E-score.

CGAACAAG returned a binding signal of -0.0546 E-score.

AATTTCGG yielded a binding signal of 0.0359 E-score.

CGTATACA yielded a binding signal of 0.227 E-score.

Turning to TACAATCA, the binding signal is 0.157 E-score.

CGATAGAG returned a binding signal of -0.134 E-score.

As to GCAAATGA, the binding signal amounted to 0.0997 E-score.

In the case of CGTGACCC, the binding signal is -0.282 E-score.

Sequence ATAGTACA registered a binding signal of 0.332 E-score.

The sequence AGACCTAT gave a binding signal of 0.0658 E-score.

Sequence TACGCTAA yielded a binding signal of 0.181 E-score.

CCTACGAA: the binding signal turned out to be 0.131 E-score.

Sequence GGCTTATA returned a binding signal of 0.0718 E-score.

In the case of ACGACCTA, the binding signal amounted to 0.0968 E-score.

On to CGGCGTAC, for which the binding signal is -0.0917 E-score.

The sequence AAGCTGCA showed a binding signal of -0.106 E-score.

AATACCGG came in with a binding signal of 0.193 E-score.

For the sequence ATAGTCAC, the binding signal is 0.0659 E-score.

Take TCCCACAA: the binding signal turned out to be 0.0219 E-score.

CGGGACTC came in with a binding signal of -0.31 E-score.

AATCCCAT registered a binding signal of 0.0228 E-score.

In the case of CAGTGGCG, the binding signal is -0.105 E-score.

In turn, CGGTAAGA came in with a binding signal of -0.0666 E-score.

Sequence CTTTGCAA showed a binding signal of -0.176 E-score.

In turn, ATAACGGC registered a binding signal of 0.098 E-score.

Sequence CACCGAGC had a binding signal of -0.126 E-score.

As to AGATAGCA, the binding signal stood at 0.201 E-score.

As for AAAGCATC, the binding signal was -0.159 E-score.

Take AAACGCCA: the binding signal is -0.072 E-score.

CGGCAATA displayed a binding signal of 0.00897 E-score.

Take AAATTATA: the binding signal was 0.413 E-score.

Sequence CATAAGGA displayed a binding signal of -0.0425 E-score.

GCGAACCC displayed a binding signal of -0.23 E-score.
